Results as given in PubChem BioAssay AID651820 (National Center for Advancing Translational Sciences (NCATS), 2012).
“And” between values parts separate entries of the source, which are not always exact repeats. Equal values may be shown once. About 12,000 (3.5%) of roughly 340,000 compounds were called active. The inconclusive results got no clear call from the source; some entries with a clear call stand among them for comparison. The call rests on the fitted dose curve; in most records, active means well fitted inhibition curve with a large enough effect; inconclusive means small, poorly fitted or top-dose-only effect, or another doubt; inactive means no such curve, though single readings can be large or run the other way. Potencies beside an inconclusive call are fits to weak or partial responses and may not hold up.

Test: qHTS Assay for Inhibitors of Hepatitis C Virus (HCV)
Details: Huh7.5.1 HCVcc-Cre (HCVcc is cell-culture hepatitis C virus) infection, luciferase reporter, 44 h; activity change, negative = inhibition: at 41.8 µM (top of the series) unless noted
Method in brief: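 Compounds are dispensed onto cells plated 4 h earlier at 1,000 per well, with HCVcc-Cre virus (about 0.5 moi) added next. Following 44 h of culture, luminescent signal is measured for 15 sec after 15 min with substrate at room temperature.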
On the % scale 0 is the no-effect control and ±100 the full control effect; potency means the concentration at half of the fitted maximal effect; tags describe the fitted curve by direction and shape.

SMILES	Potency	activity change, negative = inhibition
CN1CCc2c(sc(NC(=O)c3cc(Cl)sc3Cl)c2C(N)=O)C1	active: 12.6 µM	
COc1ccc(C[C@H]2CN3C(=NC[C@H]3C)N2CCNC(=O)c2ccc(C)c(Br)c2)cc1	inconclusive: 15.8 µM [inhibitor, partial curve]	
O=C(CN1C(=O)C2CCCCC2C1=O)Nc1nc(-c2ccccn2)cs1 (stereo unspecified)	inconclusive: 14.1 µM [inhibitor, single point]	
COc1ccc(/C=N/Nc2nc3ccccc3c(=O)n2-c2ccccc2)cc1OC	inconclusive: 2.82 µM [inhibitor, partial curve]	
CCOc1ccc(-n2c(SCC(=O)NCc3ccco3)nc3c(c2=O)SCC3)cc1	inconclusive: 14.1 µM [inhibitor, partial curve]	
NC(=O)Cn1c(=O)n(Cc2ccco2)c(=O)c2c3c(sc21)CCCCC3		inactive: 6.35%
Cc1nnc(SCCCOc2ccccc2)nc1C		inactive: -0.379%
O=C(Nc1cccc(O)c1)c1cc(S(=O)(=O)N2CCCC2)ccc1Cl	inconclusive: 31.6 µM [inhibitor, single point]	
O=C(NC(=S)Nc1nc2c(s1)CCCC2)c1ccccc1	inconclusive: 12.6 µM [inhibitor, partial curve]	
CCOC(=O)c1c(/N=C/c2ccccc2O)sc2c1CCC2	inconclusive: 3.55 µM [inhibitor, partial curve]	
Cc1cccc(C(=O)NC2CC3CCCC(C2)N3Cc2ccccc2)c1 (stereo unspecified)		inactive: -1.04%
COc1cc2c(cc1OC)CN(C(=O)CCC(=O)c1ccc(F)cc1)CC2	inconclusive: 8.91 µM [inhibitor, partial curve]	
CCCN(CCC)c1cc(Cl)nc(N)n1	inconclusive: 4.47 µM [inhibitor, full curve]	
O=c1nc2scc(-c3ccccc3)n2c2ccccc12		inactive: -9.32%
O=C1C=C(Nc2cccnc2)c2ccccc2C1=O	active: 12.6 µM	
CC(C)Oc1cc(N)c(Cl)cc1Cl		inactive: 2.11%
CCCCCCC(C)n1[nH]c(=O)c2c(C)cc(=O)[nH]c21 (stereo unspecified)		inactive: -13.2%
Cc1ccc2nc3c(c(Nc4ccc5c(c4)OCCO5)c2c1)CCC3	inconclusive: 22.4 µM [inhibitor, single point]	
COc1ccc(CCNc2c(C)c(C)nc3ncnn23)cc1	inconclusive: 1.12 µM [inhibitor, full curve]	
CCOC(=O)c1c(N=CN(C)C)c(C#N)n2c1CCC2	inconclusive: 5.62 µM [inhibitor, single point]	
CC(=O)c1sc(NC(=O)c2ccc3c(c2)OCO3)nc1C		inactive: -17.9%
CCOc1cccc2sc(=NC(=O)c3ccco3)n(CC(=O)OC)c12	active: 11.2 µM	
COC(=O)C1CCN(C(=O)c2cc3c(=O)n4cccc(C)c4nc3n2Cc2ccccc2)CC1		inactive: -4.08%
CCCCC(=NCCc1c(C)[nH]c2ccc(OC)cc12)C1=C(O)CC(c2ccccc2)CC1=O (stereo unspecified)	inconclusive: 10 µM [inhibitor, partial curve]	

SMILES	Potency	activity change, negative = inhibition
COc1ccc(Cc2nnc(SCC(=O)c3cccc([N+](=O)[O-])c3)n2C)cc1	inconclusive: 31.6 µM [inhibitor, single point]	
Cn1c(=O)c2[nH]c(C(O)c3ccc(Cl)cc3)nc2n(C)c1=O (stereo unspecified)	inconclusive: 31.6 µM [inhibitor, single point]	
CN(C)CCCn1c(=O)n(Cc2ccco2)c(=O)c2c3c(sc21)CCCCC3		inconclusive: -50.9% [inhibitor]
COc1ccc(-c2ccnc3nc(N4CCN(c5ccccc5)CC4)nn23)cc1	inconclusive: 22.4 µM [inhibitor, single point]	
O=C(NCc1ccc(F)cc1)c1cc2ccccn2n1		inactive: -8%
Cc1cccc(OCC(=O)N(Cc2ccccc2)c2c(N)n(Cc3ccccc3)c(=O)[nH]c2=O)c1	inconclusive: 2.24 µM [inhibitor, full curve, poor fit]	
COc1cc(C)c(NC(=O)c2cc(C3CC3)nc3c2cnn3C(C)C)cc1OC	active: 5.01 µM	
COc1ccc(NC(=O)CCc2nnc3ccc(N4CCC(C)CC4)nn23)cc1OC		inactive: 14.7%
Cc1n[nH]c(C)c1N1C(=O)c2cccc3c(Br)ccc(c23)C1=O	inconclusive: 10 µM [inhibitor, partial curve]	
O=S(=O)(c1ccc(Cl)cc1)N1CCCc2ccccc21	inconclusive: 22.4 µM [inhibitor, single point]	
CCOc1ccc(CN(C)C(C)C(=O)NCCc2ccc(F)cc2)cc1 (stereo unspecified)	inconclusive: 7.08 µM [inhibitor, partial curve]	
Cc1ccc(NS(=O)(=O)c2cc([N+](=O)[O-])ccc2NNC(=S)Nc2cccc(Cl)c2)c(C)c1	inconclusive: 10 µM [inhibitor, partial curve]	
COc1ccc(Cn2nnnc2C(C(C)C)N(Cc2ccco2)Cc2cccs2)cc1 (stereo unspecified)	inconclusive: 31.6 µM [inhibitor, single point]	
Cc1ccc2cc3c(NC(=O)C(C)C)nn(C)c3nc2c1	inconclusive: 31.6 µM [inhibitor, single point]	
COC(=O)c1ccc(Cn2nc(C)cc2C)cc1		inactive: 26.8%
COc1ccc(C(=O)C2CCCN(C/C=C/c3ccccc3OC)C2)c(OC)c1 (stereo unspecified)	inconclusive: 10 µM [inhibitor, partial curve]	
Fc1ccc(CNc2ncnc3c2cnn3-c2ccccc2)cc1	inconclusive: 31.6 µM [inhibitor, single point]	
Cc1ccc(O)c(C(=O)c2cc(C#N)c(=O)n(-c3c(C)n(C)n(-c4ccccc4)c3=O)c2)c1		inactive: 11.9%
c1ccc2c(c1)nc1n2C2(N3CCOCC3)CCCC2C1N1CCOCC1 (stereo unspecified)		inactive: 4.03%
CCOC(=O)N1CCC(NC(=O)CS(=O)Cc2nc(-c3ccccc3C)oc2C)CC1 (stereo unspecified)	inconclusive: 10 µM [inhibitor, partial curve]	
COc1ccc([C@H]2CC(=O)C=C(c3ccc(CNC(=O)OC(C)(C)C)cc3)C2)cc1	inconclusive: 11.2 µM [inhibitor, partial curve]	
Cc1cccc(NC(=S)N/C(=N/S(=O)(=O)c2ccccc2)c2ccccc2)c1	inactive and inconclusive: 3.55 µM [inhibitor, single point]	
CCc1nc(Nc2ccncc2)c2oc3ccccc3c2n1	inconclusive: 2 µM [inhibitor, full curve]	
COc1ccc(CN(C)CC(=O)Nc2cccc(S(=O)(=O)N(C)c3ccccc3)c2)c(OC)c1	inconclusive: 22.4 µM [inhibitor, single point]	

SMILES	Potency	activity change, negative = inhibition
O=C(Nc1ccc(S(=O)(=O)Nc2ccc(Cl)cc2)cc1)C1CCCO1 (stereo unspecified)	active: 22.4 µM	
COc1ccc(NC(=O)C2=CC(c3ccc(OC)c(OC)c3)=NS(=O)(=O)N2C)cc1	active: 8.91 µM	
CCC1(c2cccc(Cl)c2)NC(=O)N(Cc2cc(C(=O)OC)c(C)o2)C1=O (stereo unspecified)	inconclusive: 10 µM [inhibitor, partial curve]	
O=C(CCC1CCCN(C(=O)Cc2ccc(F)cc2)C1)N1CCN(c2ccccn2)CC1 (stereo unspecified)	inconclusive: 11.2 µM [inhibitor, partial curve]	
CCC(C)(C)NC(=O)c1ccc(S(=O)(=O)N(C)c2ccccc2OC)cc1	inconclusive: 31.6 µM [inhibitor, single point]	
CCCCCCSc1ccc([C@H]2N[C@@](CC(C)C)(C(=O)OC)[C@H]3C(=O)N(C)C(=O)[C@@H]23)cc1		inactive: -8.08%
C=CCNc1nc(C(F)(F)F)nc2c1nnn2Cc1ccccc1Cl		inactive: 0.843%
COc1ccc(-n2c(C)cc(C(=O)CN3CCCCC3)c2C)cc1		inactive: -11.1%
COc1cc(OC)cc(-c2c(-c3cccs3)c3cc(-c4ccc5c(c4)OCCO5)ccc3n2C)c1	inconclusive: 10 µM [inhibitor, partial curve]	
Nc1ncccc1OCc1cccc(C(F)(F)F)c1	inconclusive: 31.6 µM [inhibitor, single point]	
CCOC(=O)C1CCCN(S(=O)(=O)c2cc(OCC(=O)NC3CCCCC3)c(C)cc2Cl)C1 (stereo unspecified)	inconclusive: 31.6 µM [inhibitor, single point]	
O=C(NCCCn1ccnc1)c1cccc(Cl)c1		inactive: 23%
Cc1ccc(NC(=O)Nc2ccno2)cc1		inactive: 9.04%
Cc1ccc(C(=O)c2cc([N+](=O)[O-])ccc2N2CCCCC2)c(C)c1	inconclusive: 1.78 µM [inhibitor, full curve]	
CC1CCN(CC(=O)Nc2nc(-c3ccccc3)cs2)CC1	inconclusive: 31.6 µM [inhibitor, single point]	
Cc1ccc(C(=O)NC(=S)Nc2ccc(CN3CCCCC3)cc2)c(C)c1		inactive: 1.54%
Brc1cc2ccccc2[n+](Cc2ccccc2)c1	inconclusive: 20 µM [inhibitor, single point]	
CC(C)C(=O)NC(=S)Nc1ccc(S(=O)(=O)N(C)Cc2ccccc2)cc1	inconclusive: 10 µM [inhibitor, partial curve]	
COc1cc(CNCCN2CCOCC2)ccc1OCc1ccccc1Cl	inconclusive: 25.1 µM [inhibitor, single point]	
O=C(CCOc1ccccc1)Nc1ccnn1C1CCN(Cc2ccc(F)cc2)CC1	inconclusive: 31.6 µM [inhibitor, single point]	
Cc1ccc(-c2noc(CCC(=O)NCCN3CCN(Cc4ccccc4)CC3)n2)cc1	inconclusive: 12.6 µM [inhibitor, partial curve]	
COc1ccc(/C=C2/CCCc3ccccc3C2=O)cc1		inactive: -7.8%
COC(=O)/C=C/c1cccc([C@H]2[C@@H]3C=CC[C@@H](C)[C@@H]3C(=O)N2Cc2ccccc2)c1	inconclusive: 25.1 µM [inhibitor, partial curve]	
